Assay results as given in article PMC9911399, “Two distinct binding modes provide the RNA-binding protein RbFox with extraordinary sequence specificity”.
Changes are numbered by the printed parent chain; changes in the protein carry UniProt numbers. The list shows a part of the results.

T1: RBFOX1 RRM RbFoxmut (Fox-RRM*) (Homo sapiens, UniProt Q9NWB1 109-208, R118D;E147R;N151S;E152T)
T1 sequence: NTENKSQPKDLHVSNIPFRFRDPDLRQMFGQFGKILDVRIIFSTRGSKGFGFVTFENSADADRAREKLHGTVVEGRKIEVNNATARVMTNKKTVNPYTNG

B1: GCCCUAC (DNA:RNA)
RNA: GGGAGACCGGAAUUCAGAUUGUCCGCCCUACUUAAAUCCCGUCGUAGCCACCA
DNA 1: CAATCTGAATTCCGGTCTCCC
DNA 2: TGGTGGCTACGACGGGATT
B2: AGAGUGU (DNA:RNA)
RNA: B1 RNA with G25A, C26G, C27A, C28G, A30G, C31U
DNA 1: CAATCTGAATTCCGGTCTCCC
DNA 2: TGGTGGCTACGACGGGATT
B3: GGUCUGC (DNA:RNA)
RNA: B1 RNA with C26G, C27U, A30G
DNA 1: CAATCTGAATTCCGGTCTCCC
DNA 2: TGGTGGCTACGACGGGATT
B4: AUCUAAC (DNA:RNA)
RNA: B1 RNA with G25A, C26U, C28U, U29A
DNA 1: CAATCTGAATTCCGGTCTCCC
DNA 2: TGGTGGCTACGACGGGATT
B5: GCAUCAU (DNA:RNA)
RNA: B1 RNA with C27A, C28U, U29C, C31U
DNA 1: CAATCTGAATTCCGGTCTCCC
DNA 2: TGGTGGCTACGACGGGATT
B6: AGGCAGG (DNA:RNA)
RNA: B1 RNA with G25A, C26G, C27G, U29A, A30G, C31G
DNA 1: CAATCTGAATTCCGGTCTCCC
DNA 2: TGGTGGCTACGACGGGATT
B7: UGAGCUA (DNA:RNA)
RNA: GGGAGACCGGAAUUCAGAUUGUCCUGAGCUAUUAAAUCCCGUCGUAGCCACCA
DNA 1: CAATCTGAATTCCGGTCTCCC
DNA 2: TGGTGGCTACGACGGGATT
B8: UCCCUUU (DNA:RNA)
RNA: B1 RNA with G25U, A30U, C31U
DNA 1: CAATCTGAATTCCGGTCTCCC
DNA 2: TGGTGGCTACGACGGGATT
B9: UUAUGUG (DNA:RNA)
RNA: B7 RNA with G26U, G28U, C29G, A31G
DNA 1: CAATCTGAATTCCGGTCTCCC
DNA 2: TGGTGGCTACGACGGGATT
B10: GGAAGGC (DNA:RNA)
RNA: B1 RNA with C26G, C27A, C28A, U29G, A30G
DNA 1: CAATCTGAATTCCGGTCTCCC
DNA 2: TGGTGGCTACGACGGGATT
B11: AGCGUCU (DNA:RNA)
RNA: B1 RNA with G25A, C26G, C28G, A30C, C31U
DNA 1: CAATCTGAATTCCGGTCTCCC
DNA 2: TGGTGGCTACGACGGGATT
B12: UUUCUAC (DNA:RNA)
RNA: B1 RNA with G25U, C26U, C27U
DNA 1: CAATCTGAATTCCGGTCTCCC
DNA 2: TGGTGGCTACGACGGGATT
B13: GGAUGCG (DNA:RNA)
RNA: B7 RNA with U25G, G28U, C29G, U30C, A31G
DNA 1: CAATCTGAATTCCGGTCTCCC
DNA 2: TGGTGGCTACGACGGGATT
B14: CCUAGUG (DNA:RNA)
RNA: B1 RNA with G25C, C27U, C28A, U29G, A30U, C31G
DNA 1: CAATCTGAATTCCGGTCTCCC
DNA 2: TGGTGGCTACGACGGGATT
B15: UUCGCCU (DNA:RNA)
RNA: B7 RNA with G26U, A27C, U30C, A31U
DNA 1: CAATCTGAATTCCGGTCTCCC
DNA 2: TGGTGGCTACGACGGGATT
B16: GUUAGUU (DNA:RNA)
RNA: B1 RNA with C26U, C27U, C28A, U29G, A30U, C31U
DNA 1: CAATCTGAATTCCGGTCTCCC
DNA 2: TGGTGGCTACGACGGGATT
B17: CGUCUAC (DNA:RNA)
RNA: B1 RNA with G25C, C26G, C27U
DNA 1: CAATCTGAATTCCGGTCTCCC
DNA 2: TGGTGGCTACGACGGGATT
B18: UUUGCUU (DNA:RNA)
RNA: B7 RNA with G26U, A27U, A31U
DNA 1: CAATCTGAATTCCGGTCTCCC
DNA 2: TGGTGGCTACGACGGGATT
B19: GAAAAGC (DNA:RNA)
RNA: B1 RNA with C26A, C27A, C28A, U29A, A30G
DNA 1: CAATCTGAATTCCGGTCTCCC
DNA 2: TGGTGGCTACGACGGGATT
B20: AACGCCU (DNA:RNA)
RNA: B7 RNA with U25A, G26A, A27C, U30C, A31U
DNA 1: CAATCTGAATTCCGGTCTCCC
DNA 2: TGGTGGCTACGACGGGATT
B21: UAUAUUG (DNA:RNA)
RNA: B7 RNA with G26A, A27U, G28A, C29U, A31G
DNA 1: CAATCTGAATTCCGGTCTCCC
DNA 2: TGGTGGCTACGACGGGATT
B22: GCUGGCU (DNA:RNA)
RNA: B1 RNA with C27U, C28G, U29G, A30C, C31U
DNA 1: CAATCTGAATTCCGGTCTCCC
DNA 2: TGGTGGCTACGACGGGATT
B23: UGGUCUU (DNA:RNA)
RNA: B7 RNA with A27G, G28U, A31U
DNA 1: CAATCTGAATTCCGGTCTCCC
DNA 2: TGGTGGCTACGACGGGATT
B24: AUUCCAC (DNA:RNA)
RNA: B1 RNA with G25A, C26U, C27U, U29C
DNA 1: CAATCTGAATTCCGGTCTCCC
DNA 2: TGGTGGCTACGACGGGATT
B25: GCUUAGU (DNA:RNA)
RNA: B1 RNA with C27U, C28U, U29A, A30G, C31U
DNA 1: CAATCTGAATTCCGGTCTCCC
DNA 2: TGGTGGCTACGACGGGATT
B26: CGCAGAC (DNA:RNA)
RNA: B1 RNA with G25C, C26G, C28A, U29G
DNA 1: CAATCTGAATTCCGGTCTCCC
DNA 2: TGGTGGCTACGACGGGATT
B27: CUACGUA (DNA:RNA)
RNA: B7 RNA with U25C, G26U, G28C, C29G
DNA 1: CAATCTGAATTCCGGTCTCCC
DNA 2: TGGTGGCTACGACGGGATT
B28: CGCAUCU (DNA:RNA)
RNA: B1 RNA with G25C, C26G, C28A, A30C, C31U
DNA 1: CAATCTGAATTCCGGTCTCCC
DNA 2: TGGTGGCTACGACGGGATT
B29: GUACGGC (DNA:RNA)
RNA: B1 RNA with C26U, C27A, U29G, A30G
DNA 1: CAATCTGAATTCCGGTCTCCC
DNA 2: TGGTGGCTACGACGGGATT
B30: AGAGGGA (DNA:RNA)
RNA: B7 RNA with U25A, C29G, U30G
DNA 1: CAATCTGAATTCCGGTCTCCC
DNA 2: TGGTGGCTACGACGGGATT
B31: CUCAAUC (DNA:RNA)
RNA: B1 RNA with G25C, C26U, C28A, U29A, A30U
DNA 1: CAATCTGAATTCCGGTCTCCC
DNA 2: TGGTGGCTACGACGGGATT

biological target: T1, RBFOX1 RRM RbFoxmut (Fox-RRM*); assay: EMSA; HiTS-Eq, 1 nM pool, 10 min; buffer printed only for the single-RNA assays: 10 mM Tris pH 7.5, 150 mM NaCl, 3.4 mM EDTA, 0.001% NP-40, 30 C; details: tags: His6 N-terminal (pET28a); label: 5' 32P
Method in brief: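 These values rest on relative association constants, computed from read-count changes of each RNA species versus the control reaction and normalised to the cognate motif. Reads came from free RNA recovered by 8% native PAGE after purified RbFox RRM (wild type or mutant) at increasing concentrations was equilibrated for 10 min in 50 µL with 1 nM of a 5′-radiolabelled pool with 7 randomized nucleotides and DNA-annealed flanks.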

| Binder | binding signal |
| --- | --- |
| B1 | 0.084 KA relative to UGCAUGU |
| B2 | 0.16 KA relative to UGCAUGU |
| B3 | 0.134 KA relative to UGCAUGU |
| B4 | 0.096 KA relative to UGCAUGU |
| B5 | 0.313 KA relative to UGCAUGU |
| B6 | 0.117 KA relative to UGCAUGU |
| B7 | 0.11 KA relative to UGCAUGU |
| B8 | 0.0764 KA relative to UGCAUGU |
| B9 | 0.124 KA relative to UGCAUGU |
| B10 | 0.0498 KA relative to UGCAUGU |
| B11 | 0.0943 KA relative to UGCAUGU |
| B12 | 0.0848 KA relative to UGCAUGU |
| B13 | 0.231 KA relative to UGCAUGU |
| B14 | 0.127 KA relative to UGCAUGU |
| B15 | 0.0794 KA relative to UGCAUGU |
| B16 | 0.117 KA relative to UGCAUGU |

| Binder | binding signal |
| --- | --- |
| B17 | 0.114 KA relative to UGCAUGU |
| B18 | 0.0734 KA relative to UGCAUGU |
| B19 | 0.0796 KA relative to UGCAUGU |
| B20 | 0.0706 KA relative to UGCAUGU |
| B21 | 0.132 KA relative to UGCAUGU |
| B22 | 0.116 KA relative to UGCAUGU |
| B23 | 0.0776 KA relative to UGCAUGU |
| B24 | 0.0586 KA relative to UGCAUGU |
| B25 | 0.143 KA relative to UGCAUGU |
| B26 | 0.104 KA relative to UGCAUGU |
| B27 | 0.124 KA relative to UGCAUGU |
| B28 | 0.395 KA relative to UGCAUGU |
| B29 | 0.102 KA relative to UGCAUGU |
| B30 | 0.0855 KA relative to UGCAUGU |
| B31 | 0.059 KA relative to UGCAUGU |
